The other results are listed elsewhere or left out. Most values come without repeats; read them as rough.
Key:
Experiment in all cases: cell count relative to DMSO control; melanoma cells; higher = more viable cells
Conditions in all cases: library dose: low library concentration; 72 h
MZ2-MEL = test system: MZ2-MEL
MeWo = test system: MeWo
RPMI7951 = test system: RPMI7951
RVH-421 = test system: RVH-421
SkMel28 = test system: SkMel28
SkMel2 = test system: SkMel2
SkMel30 = test system: SkMel30
SkMel5 = test system: SkMel5
UACC257 = test system: UACC257
UACC62 = test system: UACC62
WM115 = test system: WM115
WM1716 = test system: WM1716
WM1745 = test system: WM1745
WM3526 = test system: WM3526
WM3619 = test system: WM3619
WM451Lu = test system: WM451Lu
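Also: cell number obtained by counting DAPI-stained nuclei in high-throughput microscope images with image analysis software, screen run in 1,536-well plates.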

Cc1cc(Nc2cc(N3CCN(C)CC3)nc(Sc3ccc(NC(=O)C4CC4)cc3)n2)n[nH]1 [Tozasertib] + COc1cc(Nc2ncc(F)c(Nc3ccc4c(n3)NC(=O)C(C)(C)O4)n2)cc(OC)c1OC [Tamatinib] (first compound 0.006 µM, partner dose 0.4 µM) was tested, and the cell count (MZ2-MEL) was 85.8%, the cell count (MeWo) was 88% and the cell count (RPMI7951) was 87.5%. The cell count (RVH-421) was 106%, the cell count (SkMel28) was 84.3% and the cell count (SkMel2) was 97.4%. It also gave a cell count (SkMel30) of 64.8%, a cell count (SkMel5) of 78.6% and a cell count (UACC257) of 73.3%. The cell count (UACC62) was 88.6%, the cell count (WM115) was 84.1% and the cell count (WM1716) was 92.4%. It also gave a cell count (WM1745) of 40%, a cell count (WM3526) of 89.7% and a cell count (WM3619) of 82.2%. For the same compound, the cell count (WM451Lu) was 57.2%.
For CC[C@]1(O)C[C@H]2CN(CCc3c([nH]c4ccccc34)[C@@](C(=O)OC)(c3cc4c(cc3OC)N(C=O)[C@H]3[C@@](O)(C(=O)OC)[C@H](OC(C)=O)[C@]5(CC)C=CCN6CC[C@]43[C@@H]65)C2)C1 [vincristine] + NC(=O)Nc1cc(-c2cccc(F)c2)sc1C(=O)N[C@H]1CCCNC1 [AZD7762] (first compound 0.0001 µM, partner dose 0.02 µM), the cell count (MZ2-MEL) was 106%, the cell count (MeWo) was 99.2% and the cell count (RPMI7951) was 63.2%. For the same compound, the cell count (RVH-421) was 98.8%, the cell count (SkMel28) was 69.5% and the cell count (SkMel2) was 103%. It also gave a cell count (SkMel30) of 56.2%, a cell count (SkMel5) of 113% and a cell count (UACC257) of 52.6%. It also gave a cell count (UACC62) of 58.5%, a cell count (WM115) of 42.5% and a cell count (WM1716) of 40.6%. It also gave a cell count (WM1745) of 97.3%, a cell count (WM3526) of 56.5% and a cell count (WM3619) of 44.6%. For the same compound, the cell count (WM451Lu) was 71.8%.
Cc1cc(Nc2cc(N3CCN(C)CC3)nc(Sc3ccc(NC(=O)C4CC4)cc3)n2)n[nH]1 [Tozasertib] + OCCn1cc(-c2cnc3nnn(Cc4ccc5ncccc5c4)c3n2)cn1 [PF04217903] (first compound 0.006 µM, partner dose 1 µM) gave a cell count (MZ2-MEL) of 101%, a cell count (MeWo) of 94% and a cell count (RPMI7951) of 103%. The cell count (RVH-421) was 94.6%, the cell count (SkMel28) was 99.1% and the cell count (SkMel2) was 93.5%. The cell count (SkMel30) was 90.1%, the cell count (SkMel5) was 91.7% and the cell count (UACC257) was 89%. It also gave a cell count (UACC62) of 106%, a cell count (WM115) of 91% and a cell count (WM1716) of 102%. For the same compound, the cell count (WM1745) was 90.6%, the cell count (WM3526) was 94.5% and the cell count (WM3619) was 78.5%. The cell count (WM451Lu) was 113%.
CC[C@]1(O)C[C@H]2CN(CCc3c([nH]c4ccccc34)[C@@](C(=O)OC)(c3cc4c(cc3OC)N(C=O)[C@H]3[C@@](O)(C(=O)OC)[C@H](OC(C)=O)[C@]5(CC)C=CCN6CC[C@]43[C@@H]65)C2)C1 [vincristine] + COc1cc(Nc2ncc(F)c(Nc3ccc4c(n3)NC(=O)C(C)(C)O4)n2)cc(OC)c1OC [Tamatinib] (first compound 0.0001 µM, partner dose 0.4 µM) was tested, and the cell count (MZ2-MEL) was 78%, the cell count (MeWo) was 72.9% and the cell count (RPMI7951) was 71.6%. The cell count (RVH-421) was 90.7%, the cell count (SkMel28) was 67.8% and the cell count (SkMel2) was 87.1%. The cell count (SkMel30) was 62.1%, the cell count (SkMel5) was 87% and the cell count (UACC257) was 34.6%. It also gave a cell count (UACC62) of 58.1%, a cell count (WM115) of 38.4% and a cell count (WM1716) of 50.6%. For the same compound, the cell count (WM1745) was 51.6%, the cell count (WM3526) was 56.9% and the cell count (WM3619) was 65.3%. It also gave a cell count (WM451Lu) of 53.7%.

Source: the supplement of paper PMC4604168 (melanoma cell lines)
